Data on three molecules can be found in PMC5805785, “Site-specific phosphorylation of TRANSPARENT TESTA GLABRA1 mediates carbon partitioning in Arabidopsis seeds” (Nature Communications, 2018).

Assay [1] deals with T1, 4HA-TTG1 (Arabidopsis thaliana) (UniProt Q9XGN1).
T1 sequence: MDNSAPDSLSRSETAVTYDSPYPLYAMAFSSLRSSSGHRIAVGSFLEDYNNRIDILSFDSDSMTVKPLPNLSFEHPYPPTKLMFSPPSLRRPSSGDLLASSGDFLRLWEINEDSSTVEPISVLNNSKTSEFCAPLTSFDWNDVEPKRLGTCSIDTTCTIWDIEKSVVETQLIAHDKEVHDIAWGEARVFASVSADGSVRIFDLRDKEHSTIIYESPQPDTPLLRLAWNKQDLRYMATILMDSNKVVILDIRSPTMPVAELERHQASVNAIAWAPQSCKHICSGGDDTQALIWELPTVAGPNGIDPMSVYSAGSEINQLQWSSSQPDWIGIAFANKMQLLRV
Nature of the assay: co-IP; total protein extracts of transgenic Arabidopsis siliques 4 days after pollination; anti-HA agarose beads, 4 °C, 2 h; 50 mM Tris-HCl pH 7.5, 150 mM NaCl, 1 mM EDTA, 5% glycerol, 0.5% Triton X-100; blot with anti-GFP and anti-HA.

Assay [2] has as its target T2, 4HA-TTG1^S215E (Arabidopsis thaliana) (UniProt Q9XGN1).
T2 sequence: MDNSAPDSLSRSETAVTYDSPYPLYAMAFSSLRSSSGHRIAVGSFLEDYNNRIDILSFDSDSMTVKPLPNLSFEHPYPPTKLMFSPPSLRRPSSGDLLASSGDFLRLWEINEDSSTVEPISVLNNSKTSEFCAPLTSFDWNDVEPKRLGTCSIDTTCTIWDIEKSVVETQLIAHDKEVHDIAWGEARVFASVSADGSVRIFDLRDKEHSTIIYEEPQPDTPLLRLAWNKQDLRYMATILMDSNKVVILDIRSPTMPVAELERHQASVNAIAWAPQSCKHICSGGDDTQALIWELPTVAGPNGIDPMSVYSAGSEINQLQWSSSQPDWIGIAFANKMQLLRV
Described as above.

Assay [3] addresses T3, 4HA-TTG1^S215A (Arabidopsis thaliana) (UniProt Q9XGN1).
T3 sequence: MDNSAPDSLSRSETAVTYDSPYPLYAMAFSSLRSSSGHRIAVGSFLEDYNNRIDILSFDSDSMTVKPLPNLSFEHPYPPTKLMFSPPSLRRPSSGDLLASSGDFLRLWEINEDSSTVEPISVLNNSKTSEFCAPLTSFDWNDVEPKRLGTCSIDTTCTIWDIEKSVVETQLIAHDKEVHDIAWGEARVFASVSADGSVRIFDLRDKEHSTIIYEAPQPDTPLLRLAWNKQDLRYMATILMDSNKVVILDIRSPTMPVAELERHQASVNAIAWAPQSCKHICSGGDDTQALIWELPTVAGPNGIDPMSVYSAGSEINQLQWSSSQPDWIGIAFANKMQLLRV
The assay is described as above.

The target of assay [4] is T4, TTG1^S215E fused to cYFP (Arabidopsis thaliana) (UniProt Q9XGN1).
T4 sequence: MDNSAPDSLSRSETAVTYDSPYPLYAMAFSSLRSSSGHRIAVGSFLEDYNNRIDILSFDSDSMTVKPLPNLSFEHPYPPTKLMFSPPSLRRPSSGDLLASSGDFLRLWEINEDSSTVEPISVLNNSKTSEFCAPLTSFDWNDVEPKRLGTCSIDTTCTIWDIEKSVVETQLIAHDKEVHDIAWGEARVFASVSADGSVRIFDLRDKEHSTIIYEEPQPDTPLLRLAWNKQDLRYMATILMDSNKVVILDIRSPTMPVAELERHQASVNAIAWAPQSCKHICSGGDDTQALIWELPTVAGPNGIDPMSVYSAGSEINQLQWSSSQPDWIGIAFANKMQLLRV
Nature of the assay: split reporter; BiFC: cYFP and nYFP fusions co-expressed in Nicotiana benthamiana leaf epidermal cells by Agrobacterium infiltration, confocal microscopy 2 days after infiltration.

Assay [5] deals with T5, MBP-TTG1^S215E (Arabidopsis thaliana) (UniProt Q9XGN1).
T5 sequence: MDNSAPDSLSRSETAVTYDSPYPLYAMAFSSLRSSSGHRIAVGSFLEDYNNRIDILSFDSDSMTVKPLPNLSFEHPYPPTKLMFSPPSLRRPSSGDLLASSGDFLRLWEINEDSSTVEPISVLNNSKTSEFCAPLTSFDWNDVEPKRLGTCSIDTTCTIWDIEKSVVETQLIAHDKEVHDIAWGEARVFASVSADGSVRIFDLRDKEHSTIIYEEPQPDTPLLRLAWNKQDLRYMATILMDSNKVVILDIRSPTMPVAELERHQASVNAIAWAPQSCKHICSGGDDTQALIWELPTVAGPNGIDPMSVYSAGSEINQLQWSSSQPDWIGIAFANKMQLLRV
The assay can be described thus: pull-down; MBP, MBP-TTG1, MBP-TTG1^S215E and MBP-TTG1^S215A on amylose beads as baits; TT2-His as prey, detected with anti-His; both purified.

Results are given in words; binding and its absence hold for the method and conditions named. For some assays here: Binding seen in cells or lysates may run through a third protein. Some entries that bind do so weakly or less than the wild type. Where a sequence is shown, tags or fusion partners need not be part of it.

B1: TT2-GFP (protein, UniProt Q9FJA2 1-258)
chain: MGKRATTSVRREELNRGAWTDHEDKILRDYITTHGEGKWSTLPNQAGLKRCGKSCRLRWKNYLRPGIKRGNISSDEEELIIRLHNLLGNRWSLIAGRLPGRTDNEIKNHWNSNLRKRLPKTQTKQPKRIKHSTNNENNVCVIRTKAIRCSKTLLFSDLSLQKKSSTSPLPLKEQEMDQGGSSLMGDLEFDFDRIHSEFHFPDLMDFDGLDCGNVTSLVSSNEILGELVPAQGNLDLNRPFTSCHHRGDDEDWLRDFTC
For the molecule B1, the binding entry in assay [1] is given as “binds”; in assay [2] it was “no binding”; in assay [3] it was “binds”.

B2: TT2 fused to nYFP (protein, UniProt Q9FJA2 1-258)
chain: MGKRATTSVRREELNRGAWTDHEDKILRDYITTHGEGKWSTLPNQAGLKRCGKSCRLRWKNYLRPGIKRGNISSDEEELIIRLHNLLGNRWSLIAGRLPGRTDNEIKNHWNSNLRKRLPKTQTKQPKRIKHSTNNENNVCVIRTKAIRCSKTLLFSDLSLQKKSSTSPLPLKEQEMDQGGSSLMGDLEFDFDRIHSEFHFPDLMDFDGLDCGNVTSLVSSNEILGELVPAQGNLDLNRPFTSCHHRGDDEDWLRDFTC
Consider B2, for which, in assay [4], the binding result is “no binding”.

B3: TT2-His (natural protein, Arabidopsis thaliana, UniProt Q9FJA2 1-258, looked up)
chain: MGKRATTSVRREELNRGAWTDHEDKILRDYITTHGEGKWSTLPNQAGLKRCGKSCRLRWKNYLRPGIKRGNISSDEEELIIRLHNLLGNRWSLIAGRLPGRTDNEIKNHWNSNLRKRLPKTQTKQPKRIKHSTNNENNVCVIRTKAIRCSKTLLFSDLSLQKKSSTSPLPLKEQEMDQGGSSLMGDLEFDFDRIHSEFHFPDLMDFDGLDCGNVTSLVSSNEILGELVPAQGNLDLNRPFTSCHHRGDDEDWLRDFTC
notes: TRANSPARENT TESTA2 (TT2; MYB123), Arabidopsis thaliana; cDNA cloned into pET28a; also called MYB123; source: E. coli Rossetta (DE3), IPTG-induced, soluble fusion protein
For B3, in assay [5], the binding entry is “no binding”.
